Data as given in patent US20250282824A1, “Inhibitors of the Wnt Signaling Pathway and Uses Thereof” (Stichting VU, priority 2021, published 2025).
pIC50: −log10 of the molar value. Positions of bridges follow the written chain, without caps; N, C: chain ends. Non-standard residues stand in square brackets, D forms with d. Residues, ends and D or L forms follow the SMILES beside them. b1 = not defined here; βAla = NCCC(=O)O

Key:
[1] = target: T1, β-catenin/TCF-4 interaction (Homo sapiens, UniProt P35222); assay: FP competition of the β-catenin/TCF-4 interaction (titration and 30 μM pre-screening); format: binding; conditions: for inhibition at 30 µM: read-out: Inhibition of the TCF/β-catenin interaction, 30 μM competitor; for inhibition at 30 µM / Inhibition of the TCF/β-catenin interaction: 0% = no competitor, 100% = E-CBD at 30 μM, singlets; for Inhibition of the TCF/β-catenin interaction: 30 μM competitor
T1 construct: a solution of 1 μM β-catenin (aa 1-781) and 40 nM FITC-labeled TCF-4 peptide was prepared; 3C protease recognition site (C); His6 (C); made in house; host or cells: Escherichia coli BL21 (DE3), pET-28a(+); the tracer is a synthetic peptide
T1 sequence (P35222 1-781): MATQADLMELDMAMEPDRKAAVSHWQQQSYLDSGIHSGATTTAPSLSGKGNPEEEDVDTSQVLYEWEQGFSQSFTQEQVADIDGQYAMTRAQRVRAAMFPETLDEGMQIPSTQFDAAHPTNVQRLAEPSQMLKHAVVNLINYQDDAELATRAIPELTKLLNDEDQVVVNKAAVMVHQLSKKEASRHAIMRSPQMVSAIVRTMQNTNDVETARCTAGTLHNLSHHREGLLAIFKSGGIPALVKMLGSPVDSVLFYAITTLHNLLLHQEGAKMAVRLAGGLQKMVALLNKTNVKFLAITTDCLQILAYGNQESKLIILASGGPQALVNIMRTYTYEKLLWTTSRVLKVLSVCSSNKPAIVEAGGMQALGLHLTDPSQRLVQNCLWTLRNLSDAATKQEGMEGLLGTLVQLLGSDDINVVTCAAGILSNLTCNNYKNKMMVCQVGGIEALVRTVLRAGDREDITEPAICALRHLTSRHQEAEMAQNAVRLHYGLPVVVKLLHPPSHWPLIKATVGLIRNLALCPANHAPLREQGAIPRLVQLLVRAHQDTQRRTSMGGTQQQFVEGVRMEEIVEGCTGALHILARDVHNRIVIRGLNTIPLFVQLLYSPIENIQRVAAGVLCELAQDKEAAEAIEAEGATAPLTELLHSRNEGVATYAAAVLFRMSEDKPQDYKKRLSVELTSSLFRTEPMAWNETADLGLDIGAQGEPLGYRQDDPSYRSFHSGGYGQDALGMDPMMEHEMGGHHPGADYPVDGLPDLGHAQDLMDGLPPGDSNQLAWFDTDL

Cellular uptake = format: cell-based
Wnt signaling pathway = assay: TOPFLASH reporter gene assay in HEK293T cells

Compound	inhibition at 30 µM [1] [%]	Inhibition of the TCF/β-catenin interaction [1] [%]	other results
CC(C)C[C@@H]1NC(=O)[C@H](CC(C)C)NC(=O)[C@H](CO)NC(=O)[C@H](CC(=O)O)NC(=O)[C@@H]2CCCN2C(=O)[C@H]2CCCN2C(=O)[C@H](C(C)C)NC(=O)[C@H](CC(=O)O)NC(=O)[C@H](CC(N)=O)NC(=O)[C@H](CCCNC(=N)N)NC(=O)[C@@H]2CSCCCCSC[C@H](NC1=O)C(=O)N[C@@H](Cc1ccccc1)C(=O)NCCC(=O)NCCC(=O)N[C@@H](C(C)C)C(=O)N2 [A-b5, [βA-V-[C-R-N-D-V-p-P-D-S-L-L-C]-F-βA]/b5] (HELM PEPTIDE1{[bAla].V.C.R.N.D.V.[dP].P.D.S.L.L.C.F.[bAla]}|CHEM1{[C(CC[*:2])C[*:1]]}$PEPTIDE1,CHEM1,3:R3-1:R1|PEPTIDE1,CHEM1,14:R3-1:R2|PEPTIDE1,PEPTIDE1,1:R1-16:R2$$$V2.0)	> 50	–	pIC50 [1]: 4.96 to 5.07
CC(C)C[C@@H]1NC(=O)[C@H](CC(C)C)NC(=O)[C@H](CO)NC(=O)[C@H](CC(=O)O)NC(=O)[C@@H]2CCCN2C(=O)[C@H]2CCCN2C(=O)[C@H](C(C)C)NC(=O)[C@H](CC(=O)O)NC(=O)[C@H](CC(N)=O)NC(=O)[C@H](CCCNC(=N)N)NC(=O)[C@@H]2CSC/C=C/CSC[C@H](NC1=O)C(=O)N[C@@H](Cc1ccccc1)C(=O)NCCC(=O)NCCC(=O)N[C@@H](C(C)C)C(=O)N2 [A-b6, [βA-V-[C-R-N-D-V-p-P-D-S-L-L-C]-F-βA]/b6] (HELM PEPTIDE1{[bAla].V.C.R.N.D.V.[dP].P.D.S.L.L.C.F.[bAla]}|CHEM1{[C(=C\C[*:2])/C[*:1]]}$PEPTIDE1,CHEM1,3:R3-1:R1|PEPTIDE1,CHEM1,14:R3-1:R2|PEPTIDE1,PEPTIDE1,1:R1-16:R2$$$V2.0)	–	–	cellular uptake (Cellular uptake): comparable to the cell penetrating Tat peptide
CC(C)C[C@@H]1NC(=O)[C@H](CC(C)C)NC(=O)[C@H](CO)NC(=O)[C@H](CC(=O)O)NC(=O)[C@@H]2CCCN2C(=O)[C@H]2CCCN2C(=O)[C@H](C(C)C)NC(=O)[C@H](CC(=O)O)NC(=O)[C@H](CC(N)=O)NC(=O)[C@H](CCCNC(=N)N)NC(=O)[C@@H]2CSCc3ccccc3CSC[C@H](NC1=O)C(=O)N[C@@H](Cc1ccccc1)C(=O)NCCC(=O)NCCC(=O)N[C@@H](C(C)C)C(=O)N2 [A-b7, [βA-V-[C-R-N-D-V-p-P-D-S-L-L-C]-F-βA]/b7] (HELM PEPTIDE1{[bAla].V.C.R.N.D.V.[dP].P.D.S.L.L.C.F.[bAla]}|CHEM1{[c1ccc(C[*:2])c(C[*:1])c1]}$PEPTIDE1,CHEM1,3:R3-1:R1|PEPTIDE1,CHEM1,14:R3-1:R2|PEPTIDE1,PEPTIDE1,1:R1-16:R2$$$V2.0)	> 50	–	pIC50 [1]: 4.96 to 5.07
CC(C)C[C@@H]1NC(=O)[C@H](CC(C)C)NC(=O)[C@H](CO)NC(=O)[C@H](CC(=O)O)NC(=O)[C@@H]2CCCN2C(=O)[C@H]2CCCN2C(=O)[C@H](C(C)C)NC(=O)[C@H](CC(=O)O)NC(=O)[C@H](CC(N)=O)NC(=O)[C@H](CCCNC(=N)N)NC(=O)[C@H](CS)NC(=O)[C@H](C(C)C)NC(=O)CCNC(=O)CCNC(=O)[C@H](Cc2ccccc2)NC(=O)[C@H](CS)NC1=O [A-o, [βA-V-C-R-N-D-V-p-P-D-S-L-L-C-F-βA]] (HELM PEPTIDE1{[bAla].V.C.R.N.D.V.[dP].P.D.S.L.L.C.F.[bAla]}$PEPTIDE1,PEPTIDE1,1:R1-16:R2$$$V2.0)	< 25	–	–
CC(C)C[C@@H]1NC(=O)[C@H](CS)NC(=O)[C@H](CC(=O)O)NC(=O)[C@@H]2CCCN2C(=O)[C@H]2CCCN2C(=O)[C@H](C(C)C)NC(=O)[C@H](CS)NC(=O)[C@H](CC(N)=O)NC(=O)[C@H](CCCNC(=N)N)NC(=O)[C@H]([C@@H](C)O)NC(=O)[C@H](C(C)C)NC(=O)CCNC(=O)CCNC(=O)[C@H](Cc2ccccc2)NC(=O)[C@H](C(C)C)NC(=O)[C@H](CC(C)C)NC1=O [C-o, [βA-V-T-R-N-C-V-p-P-D-C-L-L-V-F-βA]] (HELM PEPTIDE1{[bAla].V.T.R.N.C.V.[dP].P.D.C.L.L.V.F.[bAla]}$PEPTIDE1,PEPTIDE1,1:R1-16:R2$$$V2.0)	< 25	–	–
CC(C)C[C@@H]1NC(=O)[C@H](CO)NC(=O)[C@H](CC(=O)O)NC(=O)[C@@H]2CCCN2C(=O)[C@H]2CCCN2C(=O)[C@H](C(C)C)NC(=O)[C@H](CC(=O)O)NC(=O)[C@H](CC(N)=O)NC(=O)[C@H](CCCNC(=N)N)NC(=O)[C@H]([C@@H](C)O)NC(=O)[C@H](C(C)C)NC(=O)CCNC(=O)CCNC(=O)[C@H](Cc2ccccc2)NC(=O)[C@H](C(C)C)NC(=O)[C@H](CC(C)C)NC1=O [Peptide 12, [βA-V-T-R-N-D-V-p-P-D-S-L-L-V-F-βA]] (HELM PEPTIDE1{[bAla].V.T.R.N.D.V.[dP].P.D.S.L.L.V.F.[bAla]}$PEPTIDE1,PEPTIDE1,1:R1-16:R2$$$V2.0)	–	–	inhibition of Wnt reporter activity (Wnt signaling pathway; Wnt-3a, c=20 μM, t=24 h): did not display a meaningful inhibition
Oc1nc(-c2ccc(C(F)(F)F)cc2)nc2c1CSCC2 [XAV939, reference compound]	–	–	rel. reporter activity (positive control) (Wnt signaling pathway; Wnt-3a 100 ng/ml, 24 h, concentration not given): 30%
[βA-V-T-R-C-D-V-p-P-D-S-C-L-V-F-βA] [B-o]	–	37	–
[βA-V-T-R-N-[C-V-p-P-D-C]-L-L-V-F-βA] (XVTRNCVXPDCLLVFX; HELM PEPTIDE1{[bAla].V.T.R.N.C.V.[dP].P.D.C.L.L.V.F.[bAla]}$PEPTIDE1,PEPTIDE1,6:R3-11:R3|PEPTIDE1,PEPTIDE1,1:R1-16:R2$$$V2.0; SMILES CC(C)C[C@@H]1NC(=O)[C@@H]2CSSC[C@H](NC(=O)[C@H](CC(N)=O)NC(=O)[C@H](CCCNC(=N)N)NC(=O)[C@H]([C@@H](C)O)NC(=O)[C@H](C(C)C)NC(=O)CCNC(=O)CCNC(=O)[C@H](Cc3ccccc3)NC(=O)[C@H](C(C)C)NC(=O)[C@H](CC(C)C)NC1=O)C(=O)N[C@@H](C(C)C)C(=O)N1CCC[C@@H]1C(=O)N1CCC[C@H]1C(=O)N[C@@H](CC(=O)O)C(=O)N2) [C-ox]	–	7	–
[βA-V-T-R-[C-D-V-p-P-D-S-C]-L-V-F-βA] (XVTRCDVXPDSCLVFX; HELM PEPTIDE1{[bAla].V.T.R.C.D.V.[dP].P.D.S.C.L.V.F.[bAla]}$PEPTIDE1,PEPTIDE1,5:R3-12:R3|PEPTIDE1,PEPTIDE1,1:R1-16:R2$$$V2.0; SMILES CC(C)C[C@@H]1NC(=O)[C@@H]2CSSC[C@H](NC(=O)[C@H](CCCNC(=N)N)NC(=O)[C@H]([C@@H](C)O)NC(=O)[C@H](C(C)C)NC(=O)CCNC(=O)CCNC(=O)[C@H](Cc3ccccc3)NC(=O)[C@H](C(C)C)NC1=O)C(=O)N[C@@H](CC(=O)O)C(=O)N[C@@H](C(C)C)C(=O)N1CCC[C@@H]1C(=O)N1CCC[C@H]1C(=O)N[C@@H](CC(=O)O)C(=O)N[C@@H](CO)C(=O)N2) [B-ox]	–	50	–
[βA-V-[C-R-N-D-V-p-P-D-S-L-L-C]-F-βA] (cyclo([βAla]VCRNDV[dP]PDSLLCF[βAla]); disulfide 3-14) [A-ox]	–	15	–
[βA-V-[C-R-N-D-V-p-P-D-S-L-L-C]-F-βA]/b1 (cyclo([βAla]VCRNDV[dP]PDSLLCF[βAla]); linker 3-14 via b1; reading uncertain; also: printed as [βA-V-[C-R-N-D-V-p-P-D-S-L-L-C]-F-βA]/b1) [A-b1]	–	17	–
